# Assay results from PubChem BioAssay AID588795 (National Center for Advancing Translational Sciences (NCATS), 2011).
# Screen size: about 390,000 compounds; about 1,400 (0.36%) were called active. This list was built around the results that the source calls inconclusive (neither active nor inactive); the mix of calls is not that of the screen. Calls come from the whole dose curve; as a rule, active = well fitted inhibition curve with a large enough effect; inconclusive = small, poorly fitted or top-dose-only effect; inactive = no such curve, though single readings can be large or run the other way. Where the call is inconclusive, the potency comes from a doubtful curve fit.
# Molecular target: Flap endonuclease 1 (Homo sapiens) (UniProt P39748)
# Sequence of UniProt P39748 (P39748 whole entry, looked up): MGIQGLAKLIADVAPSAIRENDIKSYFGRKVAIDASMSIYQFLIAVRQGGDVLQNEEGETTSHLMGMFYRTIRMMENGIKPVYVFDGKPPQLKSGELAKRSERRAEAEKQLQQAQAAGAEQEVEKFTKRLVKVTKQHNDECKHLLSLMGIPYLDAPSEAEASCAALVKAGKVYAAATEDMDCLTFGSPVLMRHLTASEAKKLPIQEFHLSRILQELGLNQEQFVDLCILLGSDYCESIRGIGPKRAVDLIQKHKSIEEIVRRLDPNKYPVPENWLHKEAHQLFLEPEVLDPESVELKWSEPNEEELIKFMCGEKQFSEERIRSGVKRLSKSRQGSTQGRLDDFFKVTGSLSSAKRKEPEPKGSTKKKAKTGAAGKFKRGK
# Assay: qHTS Assay for the Inhibitors of Human Flap endonuclease 1 (FEN1). Note: nearly all actives have a fitted effect of over 65% in size.
# Details: Recombinant FEN1 flap cleavage, fluorescence, 15 min; series mostly up to 114 µM
# In short: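 Steps: FEN1 (10 nM) dispensed; compound added by pin tool; 15 min at room temperature; substrate added to 50 nM final; reads at 0 min and 15 min; data normalized and fitted (four-parameter Hill).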
# Potency is the fitted concentration of half-maximal effect; tags give direction and shape of the fitted curve.
row,Compound,Potency
1,COc1ccc(O)c(C(c2c(C)[nH][nH]c2=O)c2c(C)[nH][nH]c2=O)c1,inactive
2,CCOC(=O)c1cc2c(=O)n3cccc(C)c3nc2n(Cc2ccco2)c1=NC(=O)c1cccnc1,inactive
3,O=C(CSCc1ccccc1Cl)Nc1ccc2c(c1)OCCO2,"inconclusive: 89.1 µM [inhibitor, partial curve, poor fit]"
4,COc1cccc(-c2cc(C(=O)Nc3cc(OC)c(OC)c(OC)c3)no2)c1,"inconclusive: 56.2 µM [inhibitor, partial curve, poor fit]"
5,O=C(Oc1cc(=O)oc2c1c(=O)n1c3c(cccc23)CC1)c1ccccc1,"inconclusive: 56.2 µM [inhibitor, partial curve]"
6,O=C(Cn1cc(C(=O)c2ccncc2)c(=O)c2cc(F)ccc21)Nc1ccc(Cl)cc1,inactive
7,Cc1ccc(CNC(=O)Nc2cccs2)cc1,inactive
8,COc1ccc(C2c3c(n(C)c4ccccc34)C(=O)N2CC(=O)Nc2cc(Cl)ccc2C)cc1 (stereo not drawn),inactive
9,Cc1cccc(N2CCN(C(=O)c3cc(S(=O)(=O)N4CCCC4)cn3C)CC2)c1C,"inconclusive: 3.98 µM [inhibitor, partial curve, poor fit]"
10,COc1cccc(N2CCc3c(C)nc4ccc(Cl)cc4c32)c1,"inconclusive: 50.1 µM [inhibitor, partial curve, poor fit]"
11,COc1ccccc1-c1ccc(NC2CCCCC2)nn1,"inconclusive: 89.1 µM [inhibitor, partial curve, poor fit]"
12,O=C1C(Cl)=C(Nc2ccc3cn[nH]c3c2)C(=O)c2ccccc21,"inconclusive: 50.1 µM [inhibitor, partial curve]"
13,Nc1[nH]nc2ncc3cc4ccccc4nc3c12,"inconclusive: 44.7 µM [inhibitor, partial curve]"
14,Cc1ccnc(Nc2nc(-c3c(C)nc4sccn34)cs2)c1,"inconclusive: 50.1 µM [inhibitor, partial curve]"
15,Cc1[nH]c2ccccc2c1C(=O)CN1C(=O)C(=O)N(CCC2=CCCCC2)C1=O,"inconclusive: 10 µM [inhibitor, partial curve, poor fit]"
16,CCOc1ccc(N2C(=O)c3n[nH]c(-c4cccs4)c3C2c2cccc(F)c2)cc1 (stereo not drawn),"inconclusive: 50.1 µM [inhibitor, partial curve, poor fit]"
17,CC(C)c1ccc(NC(=O)C(c2ccccc2)N(C)C(=O)CCc2c[nH]c3ccccc23)cc1 (stereo not drawn),"inconclusive: 89.1 µM [inhibitor, partial curve, poor fit]"
18,Cc1cc(-c2ccccc2)nc(Oc2ccc(C(C)(C)C)cc2)c1S(C)(=O)=O,"inconclusive: 50.1 µM [inhibitor, partial curve, poor fit]"
19,C=CCN(C/C(=N\O)c1sc(C(=O)OCC)nc1C)c1cccc(Br)c1,"inconclusive: 50.1 µM [inhibitor, partial curve, poor fit]"
20,CCOc1ccccc1CNC(=O)Cn1cc2c(n1)-c1c(oc(C(=O)N3CCCC3)c1C)CC2,"inconclusive: 22.4 µM [inhibitor, partial curve, poor fit]"
21,O=C(c1cc(S(=O)(=O)N2CCCC2)c[nH]1)N1CCN(c2cccc(Cl)c2)CC1,inactive

row,Compound,Potency
1,Cc1nn(-c2ccccc2)c2nc(-c3ccco3)cc(C(=O)O)c12,"inconclusive: 89.1 µM [inhibitor, single point]"
2,CCCCCn1c(SCCCC)nc2c1c(=O)[nH]c(=O)n2C,inactive
3,COc1ccc(-c2nnc(Nc3nc4c(OC)cccc4s3)o2)c(OC)c1,"inconclusive: 35.5 µM [inhibitor, full curve]"
4,COc1ccc(OC)c(C2CC(=O)N3CN(c4ccccc4)CSC3=C2C#N)c1 (stereo not drawn),"inconclusive: 56.2 µM [inhibitor, partial curve, poor fit]"
5,CCN(C(=O)c1cc2c(s1)-c1ccccc1OC2)c1cc(OC)ccc1OC,"inconclusive: 39.8 µM [inhibitor, single point]"
6,CC(C)CSc1nc(N2CCOCC2)c2c(c1C#N)CC(C)(C)SC2,"inconclusive: 70.8 µM [inhibitor, partial curve, poor fit]"
7,CC(C)c1ccc(NC2CCCN(C(=O)c3cc(C(C)C)nc(N)n3)C2)cc1 (stereo not drawn),inactive
8,COc1ccc(OC)c(Nc2nc(NCCO)c3ccccc3n2)c1,"inconclusive: 56.2 µM [inhibitor, partial curve]"
9,O=C(Nc1cccc(C(F)(F)F)c1)c1ccc2nc(-c3ccco3)c(-c3ccco3)nc2c1,"inconclusive: 50.1 µM [inhibitor, partial curve]"
10,Cc1[nH]c2ccccc2c1/C=N/NC(=O)c1cccc([N+](=O)[O-])c1,"inconclusive: 89.1 µM [inhibitor, partial curve, poor fit]"
11,Cc1ccc(CNC(=O)c2cccc3c2C(=O)c2ccc(N4CCC(C)CC4)cc2S3(=O)=O)cc1,"inconclusive: 89.1 µM [inhibitor, partial curve, poor fit]"
12,Cc1ccccc1CN1C(=O)C(O)(c2c[nH]c3ccccc23)c2cc(Cl)ccc21 (stereo not drawn),"inconclusive: 28.2 µM [inhibitor, partial curve, poor fit]"
13,CCCN1CCN(c2ncnc3sc(C(=O)Nc4ccc(OC(F)(F)F)cc4)c(C)c23)CC1,"inconclusive: 20 µM [inhibitor, partial curve, poor fit]"
14,CC(C)OC(=O)CC(=O)CSc1nc2c(cc1C#N)CCCCCC2,"inconclusive: 20 µM [inhibitor, partial curve, poor fit]"
15,CCC(=O)Nc1ccc2nc3c(=O)[nH]c(=S)[nH]c3nc2c1,active: 50.1 µM
16,COc1ccc2cc3c(N)c(C(=O)N4CCCC4)sc3nc2c1,"inconclusive: 25.1 µM [inhibitor, full curve]"
17,Cc1nnc(SCc2nc3sc(C(=O)O)c(C)c3c(=O)[nH]2)s1,"inconclusive: 35.5 µM [inhibitor, partial curve, poor fit]"
18,COc1ccc(-c2c(C#N)c(SCC(=O)Nc3ccc(C)c(C)c3)nc(C)c2C(=O)Nc2ccccc2)cc1OC,inactive
19,COc1ccccc1CNCc1cc(=O)oc2c(C)c(C)ccc12,"inconclusive: 79.4 µM [inhibitor, partial curve, poor fit]"
20,N=c1n(CCO)c2ccccc2n1CCOc1ccccc1,inactive
21,N#C/C(=C\Nc1ccccc1O)c1nc2ccccc2o1,"inconclusive: 28.2 µM [inhibitor, partial curve, poor fit]"

row,Compound,Potency
1,CCOC(=O)/C(C#N)=C/c1ccc(N2CCN(Cc3ccccc3)CC2)cc1,"inconclusive: 89.1 µM [inhibitor, single point]"
2,COc1ccc2[nH]c3c(c2c1)CCN1C(=O)C(CC(=O)NCc2ccc(OC)c(OC)c2)C[C@H](C(=O)N2CCCCC2)[C@@]31CCc1ccccc1 (stereo partly drawn),inactive
3,CCN1CCCC1CNC(=O)c1cc2c(-c3ccc(Cl)cc3)nn(C)c2s1 (stereo not drawn),active: 50.1 µM
4,O=C(Nc1cccnc1)c1cc2cc(Br)ccc2oc1=O,"inconclusive: 79.4 µM [inhibitor, partial curve, poor fit]"
5,O=C(c1cccs1)N1CCCc2cc(NS(=O)(=O)c3ccc(Br)cc3)ccc21,"inconclusive: 35.5 µM [inhibitor, partial curve, poor fit]"
6,Cc1c(C)n(C)c2ccc(C(=O)NCCCN3CCCC3)cc12,"inconclusive: 79.4 µM [inhibitor, partial curve, poor fit]"
7,N#CC1=C2SCN(c3ccccc3)CN2C(=O)CC1c1ccccc1Cl (stereo not drawn),"inconclusive: 89.1 µM [inhibitor, single point]"
8,CCOC(=O)C1=C(C)N=c2s/c(=C/c3ccco3)c(=O)n2C1c1cccc(OC)c1 (stereo not drawn),inactive
9,Cc1ccc(C)c(N=Nc2ccc(O)c3ncccc23)c1,inactive
10,CN(C)CCNC(=O)c1cccc2ccc(-c3ccc(-c4ccccc4)cc3)nc12,"inconclusive: 44.7 µM [inhibitor, partial curve, poor fit]"
11,CCC(=O)NC(c1ccc(C)cc1)c1cc(Cl)c2cccnc2c1O (stereo not drawn),"inconclusive: 79.4 µM [inhibitor, single point]"
12,c1ccc2nc3c(cc2c1)CCCCC3,"inconclusive: 89.1 µM [inhibitor, single point]"
13,O=C(c1cc(-c2ccco2)on1)N1CCc2ccccc2C1,"inconclusive: 89.1 µM [inhibitor, partial curve, poor fit]"
14,C(=C\c1ccnc2ccccc12)/c1ccc2ccccc2n1,"inconclusive: 50.1 µM [inhibitor, partial curve, poor fit]"
15,CCS(=O)(=O)N1Cc2ccccc2CC1C(=O)N1CCN(c2ccccc2)CC1 (stereo not drawn),inactive
16,O=Nc1c(O)n(Cc2ccc(Cl)cc2Cl)c2ccccc12,"inconclusive: 35.5 µM [inhibitor, partial curve, poor fit]"
17,Cc1ccc(CSc2nnc(SCC(=O)N/N=C/c3c[nH]c4ccccc34)s2)cc1,"inconclusive: 89.1 µM [inhibitor, single point]"
18,COc1cc(/C=C2/SC(=S)N(Cc3ccccc3)C2=O)ccc1O,"inconclusive: 28.2 µM [inhibitor, full curve, poor fit]"
19,Oc1ccc(/C=N/Nc2cccc3cccnc23)c(O)c1,"inconclusive: 56.2 µM [inhibitor, partial curve, poor fit]"
20,CCC(C)n1c(SCC(=O)Nc2ccc3[nH]c(=O)[nH]c3c2)nc2ccccc2c1=O (stereo not drawn),inactive
21,O=C(c1cccs1)c1cn(CCOc2ccc(F)cc2)c2ccccc12,"inconclusive: 89.1 µM [inhibitor, partial curve]"
